This sample is rich in variants without activity.
B1: glmS ribozyme (parent)
chain: AUAAAAGCGCCAGAACUACAGAAAUGUAGUUGACGAGGAGGAGGUUUAUCGAAUUUUCGGCGGAUGCCUCCAAA

Columns and labels:
Conditions in all cases: with glucosamine-6-phosphate
[1] = variants of: B1; experiment: self-cleavage kobs at 40 uM GlcN6P; higher = faster cleavage; RNA array
Procedure, shortened: (§1)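 Using a hybridised Cy3 probe at 37 °C, barcoded ribozyme variants transcribed in situ by E. coli RNA polymerase on sequenced MiSeq chips were monitored across tiles imaged over ~14 h. The flow contained glucosamine-6-phosphate from 40 μM to 10 mM in HEPES/KCl/Mg(OAc)2 buffer. Signals were normalised to baseline and to non-cleaving reference variants before per-tile medians were fit to one- or two-exponential decays to yield kobs. Weighted Michaelis–Menten fits across concentrations gave kcat and KM.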

[2] = variants of: B1; experiment: self-cleavage kobs at 640 uM GlcN6P; higher = faster cleavage; RNA array
Procedure, shortened: as §1

[3] = variants of: B1; experiment: self-cleavage kobs at 160 uM GlcN6P; higher = faster cleavage; RNA array
Procedure, shortened: as §1

[4] = variants of: B1; experiment: self-cleavage kobs at 2500 uM GlcN6P; higher = faster cleavage; RNA array
Procedure, shortened: as §1

[5] = variants of: B1; experiment: self-cleavage kobs at 10000 uM GlcN6P; higher = faster cleavage; RNA array
Procedure, shortened: as §1

AUAAAAGCCCCAGAACUACAGAAAUGUAGUUGACGAGGAGGAGGUUUAUCGCAUUUUCGGCGGAUGCCUCCAAA
< 1e-05 s⁻¹: self-cleavage kobs at 40 uM GlcN6P [1] | self-cleavage kobs at 640 uM GlcN6P [2] | self-cleavage kobs at 160 uM GlcN6P [3] | self-cleavage kobs at 2500 uM GlcN6P [4]

AUAAAAGCACCAGAACUACAGAAAUGUAGUUGACGAGGAGGAGGUUUAUCGAAUUUUCUGCGGAUGCCUCCAAA
< 1e-05 s⁻¹: self-cleavage kobs at 40 uM GlcN6P [1] | self-cleavage kobs at 640 uM GlcN6P [2] | self-cleavage kobs at 160 uM GlcN6P [3] | self-cleavage kobs at 10000 uM GlcN6P [5]

AUAAAAGCCCCAGAACUACAGAAAUGUAGUUGACGAGGAGGAGGUUUAUCGAAUUUUAGGCGGAUGCCUCCAAA
< 1e-05 s⁻¹: self-cleavage kobs at 40 uM GlcN6P [1] | self-cleavage kobs at 640 uM GlcN6P [2] | self-cleavage kobs at 160 uM GlcN6P [3] | self-cleavage kobs at 10000 uM GlcN6P [5]

AUAAAAGCCCCAGAACUACAGAAAUGUACUUGACGAGGAGGAGGUUUAUCGAAUUUUCGGCGGAUGCCUCCAAA
< 1e-05 s⁻¹: self-cleavage kobs at 40 uM GlcN6P [1] | self-cleavage kobs at 160 uM GlcN6P [3] | self-cleavage kobs at 2500 uM GlcN6P [4] | self-cleavage kobs at 10000 uM GlcN6P [5]

AUAAAAGCCCCAGAACUACAGAAAUGUAUUUGACGAGGAGGAGGUUUAUCGAAUUUUCGGCGGAUGCCUCCAAA
< 1e-05 s⁻¹: self-cleavage kobs at 40 uM GlcN6P [1] | self-cleavage kobs at 640 uM GlcN6P [2] | self-cleavage kobs at 160 uM GlcN6P [3]

AUAAAAGCCCCAGGACUACAGAAAUGUAGUUGACGAGGGGGAGGUUUAUCGAAUUUUCGGCGGAUGUCUCCAAA
< 1e-05 s⁻¹: self-cleavage kobs at 40 uM GlcN6P [1] | self-cleavage kobs at 640 uM GlcN6P [2] | self-cleavage kobs at 160 uM GlcN6P [3] | self-cleavage kobs at 2500 uM GlcN6P [4]

AUAAAAGCACCAGAACUACAGAAAUGUAGUUGACGAGGAGGAGGUUUAUCGAAUUAUCGGCGGAUGCCUCCAAA
< 1e-05 s⁻¹: self-cleavage kobs at 40 uM GlcN6P [1] | self-cleavage kobs at 640 uM GlcN6P [2] | self-cleavage kobs at 2500 uM GlcN6P [4]

AUAAAAGCCCCAUAACUACAGAAAUGUAGUUGACGAGGAGUAGGUUUAUCGAAUUUUCGGCGUAUGCCUCCAAA
< 1e-05 s⁻¹: self-cleavage kobs at 40 uM GlcN6P [1] | self-cleavage kobs at 10000 uM GlcN6P [5]

AUAAAAGCCCCAGUACUACAGAAAUGUAGUUGACGAGGAGGAGGUUUAUCGAAUUUUCGGCGGAUGCCUCCAAA
< 1e-05 s⁻¹: self-cleavage kobs at 40 uM GlcN6P [1] | self-cleavage kobs at 640 uM GlcN6P [2] | self-cleavage kobs at 160 uM GlcN6P [3] | self-cleavage kobs at 2500 uM GlcN6P [4] | self-cleavage kobs at 10000 uM GlcN6P [5]

AUAAAAGCCCCAGCACUACAGAAAUGUAGUUGACGAGGAGGAGGUUUAUCGAAUUUUCGGCGGAUGCCUCCAAA
< 1e-05 s⁻¹: self-cleavage kobs at 40 uM GlcN6P [1] | self-cleavage kobs at 160 uM GlcN6P [3]

AUAAAAGCACCAGAACUACAGAAAUGUAGUUGACGAGGAGGAGGUUUAUCGAAUUUGCGGCGGAUGUCUCCAAA
< 1e-05 s⁻¹: self-cleavage kobs at 40 uM GlcN6P [1] | self-cleavage kobs at 10000 uM GlcN6P [5]

AUAAAAGCCCCAGAACUACAGAAAUGUAGUUGACGAGGAGGAGGUUUAUCGAAUUUUCGGCGGAUGGCUCCAAA
< 1e-05 s⁻¹: self-cleavage kobs at 40 uM GlcN6P [1] | self-cleavage kobs at 640 uM GlcN6P [2] | self-cleavage kobs at 160 uM GlcN6P [3] | self-cleavage kobs at 2500 uM GlcN6P [4] | self-cleavage kobs at 10000 uM GlcN6P [5]

AUAAAAGCACCAGAACUACAGAAAUGUAGAUGACGAGGUGGAAGUUUAUCGAAUUUUCGGCGGAUGCCUCCAAA
< 1e-05 s⁻¹: self-cleavage kobs at 40 uM GlcN6P [1] | self-cleavage kobs at 640 uM GlcN6P [2] | self-cleavage kobs at 160 uM GlcN6P [3]

AUAAAAGCACCAGAACUACAGAAAUGUAGUUGACGAGGAGGAGGUUUAUCGAAUAUUCGGCGGAUGCCUCCAAA
< 1e-05 s⁻¹: self-cleavage kobs at 40 uM GlcN6P [1] | self-cleavage kobs at 160 uM GlcN6P [3]

AUAAAAGCCCCAGAACUACAGAAAUGUAGUUGACGAGGAGGAGGUUUAUCGAAUUUUCGGCGGAUGCAUCCAAA
< 1e-05 s⁻¹: self-cleavage kobs at 40 uM GlcN6P [1] | self-cleavage kobs at 640 uM GlcN6P [2] | self-cleavage kobs at 160 uM GlcN6P [3] | self-cleavage kobs at 10000 uM GlcN6P [5]

AUAAAAGCACCAGAACUACAGAAAUGUAGUGGACGAGGGGGAGGUUUCUCGAAUUUUCGCCGGAUGCCUCCAAA
< 1e-05 s⁻¹: self-cleavage kobs at 40 uM GlcN6P [1]

AUAAAAGCACCAGAACUACAGAAAUGUAGUUGACGAGGAGGAGGUUUAUCGAAAUUUCGGCGGAUGCCUCCAAA
< 1e-05 s⁻¹: self-cleavage kobs at 40 uM GlcN6P [1] | self-cleavage kobs at 640 uM GlcN6P [2]

AUAAAAGCCCCAUAACUACAGAAAUGUAGUUGACGAGGAGGAGGUUUAUCGAAUUUUCGGCGGAUGCCUCCAAA
< 1e-05 s⁻¹: self-cleavage kobs at 40 uM GlcN6P [1]

AUAAAAGCCCCACAACUACAGAAAUGUAGUUGACGAGGAGGAGGUUUAUCGAAUUUUCGGCGGAUGCCUCCAAA
< 1e-05 s⁻¹: self-cleavage kobs at 40 uM GlcN6P [1] | self-cleavage kobs at 640 uM GlcN6P [2] | self-cleavage kobs at 160 uM GlcN6P [3] | self-cleavage kobs at 2500 uM GlcN6P [4] | self-cleavage kobs at 10000 uM GlcN6P [5]

AUAAAAGCCCCAGACCUACAGAAAUGUAGUUGACGAGGAGGAGGUUUAUCGAAUUUUCGGCGGAUGCCUCCAAA
< 1e-05 s⁻¹: self-cleavage kobs at 40 uM GlcN6P [1] | self-cleavage kobs at 160 uM GlcN6P [3] | self-cleavage kobs at 10000 uM GlcN6P [5]

AUAAAAGCCCCAGAACUACAGAAAUGUAGUUGACGAGGAGGAGGUUUAUAGAAUUUUCGGCGGAUGCCUCCAAA
< 1e-05 s⁻¹: self-cleavage kobs at 40 uM GlcN6P [1] | self-cleavage kobs at 640 uM GlcN6P [2] | self-cleavage kobs at 2500 uM GlcN6P [4] | self-cleavage kobs at 10000 uM GlcN6P [5]

AUAAAAGCCUCAGAACUACAGAAAUGUAGUUGACGAGGAGGAGGUUUAUCGAAUUUUCGGCGGAUGCCUCCAAA
< 1e-05 s⁻¹: self-cleavage kobs at 40 uM GlcN6P [1] | self-cleavage kobs at 640 uM GlcN6P [2] | self-cleavage kobs at 160 uM GlcN6P [3] | self-cleavage kobs at 2500 uM GlcN6P [4] | self-cleavage kobs at 10000 uM GlcN6P [5]

AUAAAAGCCCCAGAACUACAGAAAUGUAGUUGACGAGGAGGAGGUUUAUCGAAUUUUCGGCGGAUGCCUCAAAA
< 1e-05 s⁻¹: self-cleavage kobs at 40 uM GlcN6P [1] | self-cleavage kobs at 10000 uM GlcN6P [5]

Source: the supplement of paper PMC7125110
